Test results from the antibiotic and cytotoxicity screens of Wong et al. (2023).
The other results are listed elsewhere or left out.

system: S. aureus RN4220; assay: growth inhibition call (relative growth <= 0.2); settings: 50 µM

Growth inhibition call, active:
CN[C@@H]1[C@@H](C)O[C@@H](O[C@H]2[C@H](C)O[C@@H](O[C@@H]3/C(C)=C/C[C@@H]4C[C@@H](C[C@]5(C=C[C@H](C)[C@@H](C(C)C)O5)O4)OC(=O)[C@@H]4C=C(C)[C@@H](O)[C@H]5OC/C(=C\C=C\[C@@H]3C)[C@]54O)C[C@@H]2OC)C[C@H]1OC

Growth inhibition call, inactive:
Cc1noc(C)c1S(=O)(=O)Nc1ccc2c(c1)CC(=O)N([C@@H](C)CO)C[C@@H](C)[C@H](CN(C)S(=O)(=O)c1cn(C)cn1)O2, CO[C@@H](CN(C)S(=O)(=O)c1ccc(F)cc1)[C@H](C)CN([C@@H](C)CO)S(=O)(=O)c1cccc(Cl)c1, C[C@@H]1CCCCO[C@H](CN(C)C(=O)Nc2ccccc2)[C@H](C)CN([C@@H](C)CO)C(=O)c2cc(NC(=O)Nc3cccc4ccccc34)ccc2O1, C[C@@H]1CN([C@H](C)CO)C(=O)c2cc(NC(=O)c3ccccc3)ccc2O[C@@H](C)CCCCO[C@@H]1CN(C)Cc1ccncc1, C[C@@H]1CN([C@H](C)CO)C(=O)c2cccc(NC(=O)NC3CCCCC3)c2O[C@@H]1CN(C)Cc1ccc(C(F)(F)F)cc1, C[C@@H]1CN([C@H](C)CO)C(=O)c2cc(NC(=O)CCN3CCOCC3)ccc2O[C@@H]1CN(C)CC1CC1, Cc1cc(C(=O)Nc2cccc3c2O[C@@H](CN(C)C(=O)Nc2ccccc2)[C@H](C)CN([C@@H](C)CO)C3=O)n(C)n1, C[C@H](CO)N1C[C@H](C)[C@@H](CN(C)C(=O)NC2CCCCC2)Oc2ccc(NC(=O)C3CC3)cc2CC1=O
